Measurements reported in the supplement of paper PMC8728848.
Some of the results follow.

Legend:
Test in all cases: glycan array binding signal (z-score within array); higher = stronger binding
Settings in all cases: glycan notation: IUPAC condensed, linker removed
[1] = target: Gal(b1-4)GlcNAc(b1-3)Gal(b1-4)GlcNAc(b1-2)Man(a1-3)[Gal(b1-4)GlcNAc(b1-3)Gal(b1-4)GlcNAc(b1-2)Man(a1-6)]Man(b1-4)GlcNAc(b1-4)[Fuc(a1-6)]GlcNAc
Summary of the method: (§1)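 Glycan array binding is given as a within-array Z-score, which can be read as non-binding when negative. The arrays, 3228 of them, came from the Consortium for Functional Glycomics database and were retained only where the protein sequence was available. Z-scores were averaged across arrays of the same protein sequence at different concentrations or buffers and across linkers.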

[2] = target: Gal(b1-4)GlcNAc(b1-3)Gal(b1-4)GlcNAc(b1-2)[Gal(b1-4)GlcNAc(b1-3)Gal(b1-4)GlcNAc(b1-6)]Man(a1-6)[Gal(b1-4)GlcNAc(b1-3)Gal(b1-4)GlcNAc(b1-2)Man(a1-3)]Man(b1-4)GlcNAc(b1-4)GlcNAc
Summary of the method: as §1

[3] = target: Gal(b1-4)GlcNAc(b1-3)Gal(b1-4)GlcNAc(b1-2)[Gal(b1-4)GlcNAc(b1-3)Gal(b1-4)GlcNAc(b1-6)]Man(a1-6)[Gal(b1-4)GlcNAc(b1-3)Gal(b1-4)GlcNAc(b1-2)Man(a1-3)]Man(b1-4)GlcNAc(b1-4)[Fuc(a1-6)]GlcNAc
Summary of the method: as §1

[4] = target: Gal(b1-4)GlcNAc(b1-3)Gal(b1-4)GlcNAc(b1-3)Gal(b1-4)GlcNAc
Summary of the method: as §1

[5] = target: Gal(b1-4)GlcNAc(b1-3)Gal(b1-4)GlcNAc(b1-3)Gal(b1-4)GlcNAc(b1-2)Man(a1-3)[Gal(b1-4)GlcNAc(b1-3)Gal(b1-4)GlcNAc(b1-3)Gal(b1-4)GlcNAc(b1-2)Man(a1-6)]Man(b1-4)GlcNAc(b1-4)GlcNAc
Summary of the method: as §1

[6] = target: Gal(b1-4)GlcNAc(b1-3)Gal(b1-4)GlcNAc(b1-3)Gal(b1-4)GlcNAc(b1-2)Man(a1-3)[Gal(b1-4)GlcNAc(b1-3)Gal(b1-4)GlcNAc(b1-3)Gal(b1-4)GlcNAc(b1-2)Man(a1-6)]Man(b1-4)GlcNAc(b1-4)[Fuc(a1-6)]GlcNAc
Summary of the method: as §1

[7] = target: Gal(b1-4)GlcNAc(b1-3)Gal(b1-4)GlcNAc(b1-3)Gal(b1-4)GlcNAc(b1-2)[Gal(b1-4)GlcNAc(b1-3)Gal(b1-4)GlcNAc(b1-3)Gal(b1-4)GlcNAc(b1-6)]Man(a1-6)[Gal(b1-4)GlcNAc(b1-3)Gal(b1-4)GlcNAc(b1-3)Gal(b1-4)GlcNAc(b1-2)Man(a1-3)]Man(b1-4)GlcNAc(b1-4)[Fuc(a1-6)]GlcNAc
Summary of the method: as §1

[8] = target: Gal(b1-4)GlcNAc(b1-3)Gal(b1-4)GlcNAc(b1-3)Gal(b1-4)GlcNAc(b1-3)Gal(b1-4)GlcNAc(b1-2)Man(a1-3)[Gal(b1-4)GlcNAc(b1-3)Gal(b1-4)GlcNAc(b1-3)Gal(b1-4)GlcNAc(b1-3)Gal(b1-4)GlcNAc(b1-2)Man(a1-6)]Man(b1-4)GlcNAc(b1-4)GlcNAc
Summary of the method: as §1

[9] = target: Gal(b1-4)GlcNAc(b1-3)Gal(b1-4)GlcNAc(b1-3)Gal(b1-4)GlcNAc(b1-3)Gal(b1-4)GlcNAc(b1-2)Man(a1-3)[Gal(b1-4)GlcNAc(b1-3)Gal(b1-4)GlcNAc(b1-3)Gal(b1-4)GlcNAc(b1-3)Gal(b1-4)GlcNAc(b1-2)Man(a1-6)]Man(b1-4)GlcNAc(b1-4)[Fuc(a1-6)]GlcNAc
Summary of the method: as §1

[10] = target: Gal(b1-4)GlcNAc(b1-3)Gal(b1-4)GlcNAc(b1-3)Gal(b1-4)GlcNAc(b1-3)Gal(b1-4)GlcNAc(b1-2)[Gal(b1-4)GlcNAc(b1-3)Gal(b1-4)GlcNAc(b1-3)Gal(b1-4)GlcNAc(b1-3)Gal(b1-4)GlcNAc(b1-6)]Man(a1-6)[Gal(b1-4)GlcNAc(b1-3)Gal(b1-4)GlcNAc(b1-3)Gal(b1-4)GlcNAc(b1-3)Gal(b1-4)GlcNAc(b1-2)Man(a1-3)]Man(b1-4)GlcNAc(b1-4)[Fuc(a1-6)]GlcNAc
Summary of the method: as §1

[11] = target: Gal(b1-4)GlcNAc(b1-3)Gal(b1-4)GlcNAc(b1-3)Gal(b1-4)GlcNAc(b1-3)Gal(b1-4)GlcNAc(b1-3)Gal(b1-4)GlcNAc(b1-2)Man(a1-3)[Gal(b1-4)GlcNAc(b1-3)Gal(b1-4)GlcNAc(b1-3)Gal(b1-4)GlcNAc(b1-3)Gal(b1-4)GlcNAc(b1-3)Gal(b1-4)GlcNAc(b1-2)Man(a1-6)]Man(b1-4)GlcNAc(b1-4)GlcNAc
Summary of the method: as §1

[12] = target: Gal(b1-4)GlcNAc(b1-3)Gal(b1-4)GlcNAc(b1-3)Gal(b1-4)GlcNAc(b1-3)Gal(b1-4)GlcNAc(b1-3)Gal(b1-4)GlcNAc(b1-2)Man(a1-3)[Gal(b1-4)GlcNAc(b1-3)Gal(b1-4)GlcNAc(b1-3)Gal(b1-4)GlcNAc(b1-3)Gal(b1-4)GlcNAc(b1-3)Gal(b1-4)GlcNAc(b1-2)Man(a1-6)]Man(b1-4)GlcNAc(b1-4)[Fuc(a1-6)]GlcNAc
Summary of the method: as §1

[13] = target: Gal(b1-4)GlcNAc(b1-3)Gal(b1-4)GlcNAc(b1-3)Gal(b1-4)GlcNAc(b1-3)Gal(b1-4)GlcNAc(b1-3)Gal(b1-4)GlcNAc(b1-2)[Gal(b1-4)GlcNAc(b1-3)Gal(b1-4)GlcNAc(b1-3)Gal(b1-4)GlcNAc(b1-3)Gal(b1-4)GlcNAc(b1-3)Gal(b1-4)GlcNAc(b1-6)]Man(a1-6)[Gal(b1-4)GlcNAc(b1-3)Gal(b1-4)GlcNAc(b1-3)Gal(b1-4)GlcNAc(b1-3)Gal(b1-4)GlcNAc(b1-3)Gal(b1-4)GlcNAc(b1-2)Man(a1-3)]Man(b1-4)GlcNAc(b1-4)[Fuc(a1-6)]GlcNAc
Summary of the method: as §1

[14] = target: Gal(b1-4)GlcNAc(b1-3)Gal(b1-4)GlcNAc(b1-3)Gal(b1-4)GlcNAc(b1-3)Gal(b1-4)GlcNAc(b1-3)Gal(b1-4)GlcNAc(b1-3)Gal(b1-4)GlcNAc(b1-2)Man(a1-3)[Gal(b1-4)GlcNAc(b1-3)Gal(b1-4)GlcNAc(b1-3)Gal(b1-4)GlcNAc(b1-3)Gal(b1-4)GlcNAc(b1-3)Gal(b1-4)GlcNAc(b1-3)Gal(b1-4)GlcNAc(b1-2)Man(a1-6)]Man(b1-4)GlcNAc(b1-4)GlcNAc
Summary of the method: as §1

[15] = target: Gal(b1-4)GlcNAc(b1-3)Gal(b1-4)GlcNAc(b1-3)GalNAc
Summary of the method: as §1

[16] = target: Gal(b1-4)GlcNAc(b1-3)Gal(b1-4)GlcNAc(b1-3)[Gal(b1-4)GlcNAc(b1-3)Gal(b1-4)GlcNAc(b1-6)]GalNAc
Summary of the method: as §1

[17] = target: Gal(b1-4)GlcNAc(b1-3)Gal(b1-4)GlcNAc(b1-6)[Gal(b1-3)]GalNAc
Summary of the method: as §1

[18] = target: Gal(b1-4)GlcNAc(b1-3)Gal(b1-4)[Fuc(a1-3)]GlcNAc(b1-3)Gal(b1-4)[Fuc(a1-3)]GlcNAc
Summary of the method: as §1

[19] = target: Gal(b1-4)GlcNAc(b1-3)GalNAc
Summary of the method: as §1

[20] = target: Gal(b1-4)GlcNAc(b1-3)[Fuc(a1-3)GlcNAc(b1-6)]Gal(b1-4)Glc
Summary of the method: as §1

[21] = target: Gal(b1-4)GlcNAc(b1-3)[Gal(b1-4)GlcNAc(b1-6)]Gal(b1-4)GlcNAc
Summary of the method: as §1

[22] = target: Gal(b1-4)GlcNAc(b1-3)[GlcNAc(b1-6)]Gal(b1-4)GlcNAc
Summary of the method: as §1

B1: CFEM-PPm (Pichia pastoris), F2QPV1 (protein)
chain: AVATPPACLLACAAEVVKESSDCDALNNIQCICENEGSAIHACLESTCPDGLSSTALQSFEDVCE
glycan array binding signal (z-score) [1]: -0.026
glycan array binding signal (z-score) [2]: 0.243
glycan array binding signal (z-score) [3]: 0.039
glycan array binding signal (z-score) [4]: -0.304
glycan array binding signal (z-score) [5]: 0.512
glycan array binding signal (z-score) [6]: -0.007
glycan array binding signal (z-score) [7]: 0.318
glycan array binding signal (z-score) [8]: -0.09
glycan array binding signal (z-score) [9]: -0.147
glycan array binding signal (z-score) [10]: 0.077
glycan array binding signal (z-score) [11]: -0.171
glycan array binding signal (z-score) [12]: -0.233
glycan array binding signal (z-score) [13]: 0.072
glycan array binding signal (z-score) [14]: -0.026
glycan array binding signal (z-score) [15]: -0.06
glycan array binding signal (z-score) [16]: 0.033
glycan array binding signal (z-score) [17]: 0.841
glycan array binding signal (z-score) [18]: -0.23
glycan array binding signal (z-score) [19]: -0.134
glycan array binding signal (z-score) [20]: -0.264
glycan array binding signal (z-score) [21]: -0.181
glycan array binding signal (z-score) [22]: -0.145
